According to the supplement of paper PMC4894684:
Structures can show the parent of a compound that is named as a salt. ± gives the standard deviation of the averaged measurements. Hit rate of the full screen: of about 1,000 compounds, about 15 (2%) showed an effect of 50% or more. This is one part of the list.

System: HFF
Assay: uninfected host cell viability relative to vehicle control; higher = less host cell toxicity
Settings: 5 µM; 72 h; oxygen 21 %
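Note: confluent HFF monolayers, run in parallel with the Toxoplasma growth screen as a host toxicity counterscreen.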

Row | Compound | uninfected host cell viability [%]
1 | Cc1scc2c1N(C(=O)CN1CCN(C)CC1)c1ccccc1NC2=O [Telenzepine dihydrochloride] | 90.6 ± 2.6
2 | CCSC(=N)N [EIT hydrobromide] | 83.6 ± 3.5
3 | COc1ccc(CN(CCN(C)C)c2ccccn2)cc1 [Mepyramine maleate] | 89.3 ± 3
4 | CNC(=O)c1cc2c(cn1)[nH]c1ccccc12 | 82.7 ± 2.8
5 | CSc1nc(NC2CCCC2)c([N+](=O)[O-])c(NC2CCCC2)n1 | 100.8 ± 0.12
6 | CCOC(=O)c1ccc(OC(=O)CCCCCNC(=N)N)cc1 [Gabexate mesylate] | 89.8 ± 11
7 | CCOC(=O)[C@H](CCc1ccccc1)N[C@H]1CCc2ccccc2N(CC(=O)O)C1=O [Benazepril hydrochloride] | 88.7 ± 3.2
8 | COc1cccc(NC(=O)/C=C/c2ccc(Cl)cc2)c1 | 79.5 ± 2.4
9 | CC(C)(C)NC[C@H](O)COc1nsnc1N1CCOCC1 [(S)-Timolol maleate] | 84.73 ± 0.69
10 | COc1ccc(NC(=O)c2ccc(-c3ccc(-c4noc(C)n4)cc3C)cc2)cc1OCCN(C)C | 36.9 ± 27
11 | Nc1nc(Cl)nc2c1ncn2[C@@H]1O[C@H](CO)[C@@H](O)[C@@H]1F [Clofarabine] | 87 ± 3.5
12 | Cc1cc(C)c(N(Cc2ccccc2)S(=O)(=O)c2ccc(OCCNC(=O)c3cc4ccccc4o3)cc2)c(C(=O)NO)c1 | 51.2 ± 3.1
13 | Nc1nc(F)nc2c1ncn2[C@@H]1O[C@H](CO)[C@@H](O)[C@@H]1O [Fludarabine] | 87.5 ± 2
14 | OC(c1ccccc1)C1CCN(CCc2ccccc2)CC1 (stereo unspecified) | 101 ± 7.3
15 | COc1ccc(NC(=O)c2cc(OCCCN(C)C)nn2Cc2ccccc2)cc1 [CFM 1571 hydrochloride] | 81.7 ± 2
16 | O=c1ncccn1[C@@H]1O[C@H](CO)[C@@H](O)[C@H]1O [Zebularine] | 90.802 ± 0.032
17 | N#Cc1ccccc1OCC(O)CNCCNC(=O)Nc1ccccc1 (stereo unspecified) | 86.9 ± 1.3
18 | C[C@H](NC(=O)c1sccc1OCc1ccc(Cl)cc1)c1ccccc1 | 115 ± 1.5
19 | O=c1cc(-c2ccc(O)cc2)oc2cc(O)cc(O)c12 [Apigenin] | 94.8 ± 1.1
20 | CCc1cc(C(C)=O)c(O)cc1OCCCCCC(C)(C)c1nn[nH]n1 | 91.1 ± 4.2
21 | C[C@@H](N)[C@H]1CC[C@H](C(=O)Nc2ccncc2)CC1 | 98.7 ± 2.2
22 | Cc1cc(C)cc(C(=O)N(C)[C@H](Cc2ccc(-c3ccccc3)cc2)C(=O)N[C@@H](Cc2c[nH]c3ccccc23)C(=O)O)c1 | 83.95 ± 0.62
23 | Cc1cccc(/C=C/c2ccccc2)n1 | 96.29 ± 0.92
24 | CCCCCCCC/C=C\CCCCCCCC(=O)N[C@@H](CO)Cc1ccc(O)cc1 | 84.5 ± 2.3
25 | Cc1nc2c(c(=O)[nH]1)CSCC2 | 110 ± 25
26 | CCCC[C@@H](C=O)NC(=O)[C@H](CC(C)C)NC(=O)OCc1ccccc1 [Calpeptin] | 94.8 ± 1.4
